Results: the supplement of paper PMC8728848
The list shows a part of the results.

Key:
Assay in all cases: glycan array binding signal (z-score within array); higher = stronger binding
Details in all cases: glycan notation: IUPAC condensed, linker removed
[1] = molecular target: Fuc(a1-2)[Gal(a1-3)]Gal(b1-4)GlcNAc(b1-2)Man(a1-3)[Fuc(a1-2)[Gal(a1-3)]Gal(b1-4)GlcNAc(b1-2)Man(a1-6)]Man(b1-4)GlcNAc(b1-4)GlcNAc
Summary of the method: (§1)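 The binding signal is a Z-score computed within each array. Data were drawn from 3228 arrays in the Consortium for Functional Glycomics database, restricted to those with a known protein sequence. Scores were averaged over arrays of the same protein sequence at different concentrations or buffers, and over linkers, and negative values can be taken as non-binding.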

[2] = molecular target: Fuc(a1-2)[Gal(a1-3)]Gal(b1-4)GlcNAc(b1-2)Man(a1-3)[Fuc(a1-2)[Gal(a1-3)]Gal(b1-4)GlcNAc(b1-2)Man(a1-6)]Man(b1-4)GlcNAc(b1-4)[Fuc(a1-6)]GlcNAc
Summary of the method: as §1

[3] = molecular target: Fuc(a1-2)[Gal(a1-3)]Gal(b1-4)GlcNAc(b1-3)GalNAc
Summary of the method: as §1

[4] = molecular target: Fuc(a1-2)[Gal(a1-3)]Gal(b1-4)GlcNAc(b1-3)[Fuc(a1-2)[Gal(a1-3)]Gal(b1-4)GlcNAc(b1-6)]GalNAc
Summary of the method: as §1

[5] = molecular target: Fuc(a1-2)[Gal(a1-3)]Gal(b1-4)GlcNAc(b1-6)GalNAc
Summary of the method: as §1

[6] = molecular target: Fuc(a1-2)[Gal(a1-3)]Gal(b1-4)[Fuc(a1-3)]Glc
Summary of the method: as §1

[7] = molecular target: Fuc(a1-2)[Gal(a1-3)]Gal(b1-4)[Fuc(a1-3)]GlcNAc
Summary of the method: as §1

[8] = molecular target: Fuc(a1-2)[Gal(a1-3)]Gal(b1-4)[Fuc(a1-3)]GlcNAc(b1-3)GalNAc
Summary of the method: as §1

[9] = molecular target: Fuc(a1-2)[Gal(a1-4)]Gal(b1-4)GlcNAc
Summary of the method: as §1

[10] = molecular target: Fuc(a1-2)[GalNAc(a1-3)]Gal
Summary of the method: as §1

[11] = molecular target: Fuc(a1-2)[GalNAc(a1-3)]Gal(b1-3)GalNAc(a1-3)[Fuc(a1-2)]Gal(b1-4)GlcNAc
Summary of the method: as §1

[12] = molecular target: Fuc(a1-2)[GalNAc(a1-3)]Gal(b1-3)GalNAc(b1-3)Gal(a1-4)Gal(b1-4)Glc
Summary of the method: as §1

[13] = molecular target: Fuc(a1-2)[GalNAc(a1-3)]Gal(b1-3)GlcNAc
Summary of the method: as §1

[14] = molecular target: Fuc(a1-2)[GalNAc(a1-3)]Gal(b1-3)GlcNAc(b1-2)Man(a1-3)[Fuc(a1-2)[GalNAc(a1-3)]Gal(b1-3)GlcNAc(b1-2)Man(a1-6)]Man(b1-4)GlcNAc(b1-4)GlcNAc
Summary of the method: as §1

[15] = molecular target: Fuc(a1-2)[GalNAc(a1-3)]Gal(b1-3)GlcNAc(b1-2)Man(a1-3)[Fuc(a1-2)[GalNAc(a1-3)]Gal(b1-3)GlcNAc(b1-2)Man(a1-6)]Man(b1-4)GlcNAc(b1-4)[Fuc(a1-6)]GlcNAc
Summary of the method: as §1

[16] = molecular target: Fuc(a1-2)[GalNAc(a1-3)]Gal(b1-3)GlcNAc(b1-3)GalNAc
Summary of the method: as §1

[17] = molecular target: Fuc(a1-2)[GalNAc(a1-3)]Gal(b1-3)GlcNAc(b1-6)GalNAc
Summary of the method: as §1

[18] = molecular target: Fuc(a1-2)[GalNAc(a1-3)]Gal(b1-4)Glc
Summary of the method: as §1

[19] = molecular target: Fuc(a1-2)[GalNAc(a1-3)]Gal(b1-4)GlcNAc
Summary of the method: as §1

[20] = molecular target: Fuc(a1-2)[GalNAc(a1-3)]Gal(b1-4)GlcNAc(b1-2)Man
Summary of the method: as §1

[21] = molecular target: Fuc(a1-2)[GalNAc(a1-3)]Gal(b1-4)GlcNAc(b1-2)Man(a1-3)[Fuc(a1-2)[GalNAc(a1-3)]Gal(b1-4)GlcNAc(b1-2)Man(a1-6)]Man(b1-4)GlcNAc(b1-4)GlcNAc
Summary of the method: as §1

[22] = molecular target: Fuc(a1-2)[GalNAc(a1-3)]Gal(b1-4)GlcNAc(b1-2)Man(a1-3)[Fuc(a1-2)[GalNAc(a1-3)]Gal(b1-4)GlcNAc(b1-2)Man(a1-6)]Man(b1-4)GlcNAc(b1-4)[Fuc(a1-6)]GlcNAc
Summary of the method: as §1

[23] = molecular target: Fuc(a1-2)[GalNAc(a1-3)]Gal(b1-4)GlcNAc(b1-3)Gal(b1-4)GlcNAc
Summary of the method: as §1

[24] = molecular target: Fuc(a1-2)[GalNAc(a1-3)]Gal(b1-4)GlcNAc(b1-3)Gal(b1-4)GlcNAc(b1-3)Gal(b1-4)GlcNAc
Summary of the method: as §1

[25] = molecular target: Fuc(a1-2)[GalNAc(a1-3)]Gal(b1-4)GlcNAc(b1-3)GalNAc
Summary of the method: as §1

[26] = molecular target: Fuc(a1-2)[GalNAc(a1-3)]Gal(b1-4)GlcNAc(b1-3)[Fuc(a1-2)[GalNAc(a1-3)]Gal(b1-4)GlcNAc(b1-6)]GalNAc
Summary of the method: as §1

[27] = molecular target: Fuc(a1-2)[GalNAc(a1-3)]Gal(b1-4)GlcNAc(b1-6)GalNAc
Summary of the method: as §1

[28] = molecular target: Fuc(a1-2)[GalNAc(a1-3)]Gal(b1-4)[Fuc(a1-3)]GlcNAc
Summary of the method: as §1

[29] = molecular target: Fuc(a1-2)[GalNAc(a1-3)]Gal(b1-4)[Fuc(a1-3)]GlcNAc(b1-3)GalNAc
Summary of the method: as §1

[30] = molecular target: Fuc(a1-2)[GalNAc(a1-4)]Gal(b1-4)GlcNAc
Summary of the method: as §1

[31] = molecular target: Fuc(a1-2)[GalNAc(b1-3)]Gal
Summary of the method: as §1

Fuc(a1-3)GlcNAc = molecular target: Fuc(a1-3)GlcNAc
Summary of the method: as §1

[32] = molecular target: Fuc(a1-3)[Gal(b1-4)]Glc6S
Summary of the method: as §1

[33] = molecular target: Fuc(a1-3)[Gal(b1-4)]GlcNAc
Summary of the method: as §1

[34] = molecular target: Fuc(a1-3)[Gal(b1-4)]GlcNAc(b1-2)Man
Summary of the method: as §1

[35] = molecular target: Fuc(a1-3)[Gal(b1-4)]GlcNAc(b1-2)Man(a1-3)[Fuc(a1-3)[Gal(b1-4)]GlcNAc(b1-2)Man(a1-6)]Man(b1-4)GlcNAc(b1-4)GlcNAc
Summary of the method: as §1

[36] = molecular target: Fuc(a1-3)[Gal(b1-4)]GlcNAc(b1-2)Man(a1-3)[Fuc(a1-3)[Gal(b1-4)]GlcNAc(b1-2)Man(a1-6)]Man(b1-4)GlcNAc(b1-4)[Fuc(a1-6)]GlcNAc
Summary of the method: as §1

[37] = molecular target: Fuc(a1-3)[Gal(b1-4)]GlcNAc(b1-3)Gal(b1-3)[Fuc(a1-4)]GlcNAc
Summary of the method: as §1

[38] = molecular target: Fuc(a1-3)[Gal(b1-4)]GlcNAc(b1-3)Gal(b1-4)[Fuc(a1-3)]GlcNAc
Summary of the method: as §1

[39] = molecular target: Fuc(a1-3)[Gal(b1-4)]GlcNAc(b1-3)Gal(b1-4)[Fuc(a1-3)]GlcNAc(b1-3)Gal(b1-4)[Fuc(a1-3)]GlcNAc
Summary of the method: as §1

[40] = molecular target: Fuc(a1-3)[Gal(b1-4)]GlcNAc(b1-3)GalNAc
Summary of the method: as §1

[41] = molecular target: Fuc(a1-3)[Gal(b1-4)]GlcNAc(b1-6)GalNAc
Summary of the method: as §1

[42] = molecular target: Fuc(a1-3)[Gal(b1-4)]GlcNAc(b1-6)[Gal(b1-3)GlcNAc(b1-3)]Gal(b1-4)Glc
Summary of the method: as §1

[43] = molecular target: Fuc(a1-3)[Gal(b1-4)]GlcNAc6S
Summary of the method: as §1

[44] = molecular target: Fuc(a1-3)[Gal3S(b1-4)]Glc
Summary of the method: as §1

[45] = molecular target: Fuc(a1-3)[Gal3S(b1-4)]GlcNAc
Summary of the method: as §1

[46] = molecular target: Fuc(a1-3)[Gal3S(b1-4)]GlcNAc6S
Summary of the method: as §1

[47] = molecular target: Fuc(a1-3)[GalNAc(b1-4)]GlcNAc
Summary of the method: as §1

[48] = molecular target: Fuc(a1-3)[GalNAc(b1-4)]GlcNAc6S
Summary of the method: as §1

Fuc(a1-4)GlcNAc = molecular target: Fuc(a1-4)GlcNAc
Summary of the method: as §1

Fuc(b1-3)GlcNAc = molecular target: Fuc(b1-3)GlcNAc
Summary of the method: as §1

Gal(a1-2)Gal = molecular target: Gal(a1-2)Gal
Summary of the method: as §1

Gal(a1-3)Gal = molecular target: Gal(a1-3)Gal
Summary of the method: as §1

Gal(a1-3)Gal(b1-3)GlcNAc = molecular target: Gal(a1-3)Gal(b1-3)GlcNAc
Summary of the method: as §1

[49] = molecular target: Gal(a1-3)Gal(b1-3)GlcNAc(b1-2)Man
Summary of the method: as §1

[50] = molecular target: Gal(a1-3)Gal(b1-3)GlcNAc(b1-2)Man(a1-3)[Gal(a1-3)Gal(b1-3)GlcNAc(b1-2)Man(a1-6)]Man(b1-4)GlcNAc(b1-4)GlcNAc
Summary of the method: as §1

[51] = molecular target: Gal(a1-3)Gal(b1-3)GlcNAc(b1-3)GalNAc
Summary of the method: as §1

[52] = molecular target: Gal(a1-3)Gal(b1-3)GlcNAc(b1-6)GalNAc
Summary of the method: as §1

[53] = molecular target: Gal(a1-3)Gal(b1-3)[Fuc(a1-4)]GlcNAc(b1-2)Man(a1-3)[Gal(a1-3)Gal(b1-3)[Fuc(a1-4)]GlcNAc(b1-2)Man(a1-6)]Man(b1-4)GlcNAc(b1-4)GlcNAc
Summary of the method: as §1

Gal(a1-3)Gal(b1-4)Glc = molecular target: Gal(a1-3)Gal(b1-4)Glc
Summary of the method: as §1

B1: Sebin2 (Coprinopsis cinerea), A8PE78 (protein)
chain: MTTPFYAYCHNVQDDNTWRLGLVFANRSTADEWWRAISEATSSIPITKSITRVTPQYYTHDIRVWNMYNFFVDGNIKSISDKFRGRLFITLEYDRSGRGVSVFPPLHIVDHVSGNWYYIRSKTAPHLFWFYDETRNAIYASKEKRTRFKVSIRNPSPQTPKDAIMINSDDVVIHIKESLYVGVDSYLGHIIPTRAYRTFKFGELEGGAIAGIEVAENAEERCSSTFDGASLYFVGPDSSSPGEPWELV
glycan array binding signal (z-score) [1]: 0.504
glycan array binding signal (z-score) [2]: -0.196
glycan array binding signal (z-score) [3]: -0.123
glycan array binding signal (z-score) [4]: 4.59
glycan array binding signal (z-score) [5]: -0.321
glycan array binding signal (z-score) [6]: -0.403
glycan array binding signal (z-score) [7]: -0.033
glycan array binding signal (z-score) [8]: 0.289
glycan array binding signal (z-score) [9]: -0.002
glycan array binding signal (z-score) [10]: -0.171
glycan array binding signal (z-score) [11]: -0.066
glycan array binding signal (z-score) [12]: 0.203
glycan array binding signal (z-score) [13]: -0.055
glycan array binding signal (z-score) [14]: -0.214
glycan array binding signal (z-score) [15]: 0.082
glycan array binding signal (z-score) [16]: -0.22
glycan array binding signal (z-score) [17]: -0.539
glycan array binding signal (z-score) [18]: -0.045
glycan array binding signal (z-score) [19]: -0.363
glycan array binding signal (z-score) [20]: 0.076
glycan array binding signal (z-score) [21]: 0.273
glycan array binding signal (z-score) [22]: -0.041
glycan array binding signal (z-score) [23]: -0.255
glycan array binding signal (z-score) [24]: 0.11
glycan array binding signal (z-score) [25]: -0.265
glycan array binding signal (z-score) [26]: 0.229
glycan array binding signal (z-score) [27]: -0.33
glycan array binding signal (z-score) [28]: -0.453
glycan array binding signal (z-score) [29]: 0.594
glycan array binding signal (z-score) [30]: 0.018
glycan array binding signal (z-score) [31]: -0.048
glycan array binding signal (z-score) (Fuc(a1-3)GlcNAc): -0.336
glycan array binding signal (z-score) [32]: 1.49
glycan array binding signal (z-score) [33]: -0.316
glycan array binding signal (z-score) [34]: -0.314
glycan array binding signal (z-score) [35]: -0.363
glycan array binding signal (z-score) [36]: 0.306
glycan array binding signal (z-score) [37]: -0.279
glycan array binding signal (z-score) [38]: -0.062
glycan array binding signal (z-score) [39]: 0.118
glycan array binding signal (z-score) [40]: 0.281
glycan array binding signal (z-score) [41]: -0.289
glycan array binding signal (z-score) [42]: -0.501
glycan array binding signal (z-score) [43]: -0.151
glycan array binding signal (z-score) [44]: -0.212
glycan array binding signal (z-score) [45]: -0.212
glycan array binding signal (z-score) [46]: -0.319
glycan array binding signal (z-score) [47]: -0.118
glycan array binding signal (z-score) [48]: 0.789
glycan array binding signal (z-score) (Fuc(a1-4)GlcNAc): 4.58
glycan array binding signal (z-score) (Fuc(b1-3)GlcNAc): -0.189
glycan array binding signal (z-score) (Gal(a1-2)Gal): -0.294
glycan array binding signal (z-score) (Gal(a1-3)Gal): 0.463
glycan array binding signal (z-score) (Gal(a1-3)Gal(b1-3)GlcNAc): 1.62
glycan array binding signal (z-score) [49]: 0.448
glycan array binding signal (z-score) [50]: 0.377
glycan array binding signal (z-score) [51]: 0.114
glycan array binding signal (z-score) [52]: -0.001
glycan array binding signal (z-score) [53]: 0.027
glycan array binding signal (z-score) (Gal(a1-3)Gal(b1-4)Glc): 0.021
